Results reported in the supplement of paper PMC4967469.
By IC50 is meant the dose at which the fit gives 50% viability; where the fit passes the top or lowest dose, that dose stands as a limit. The AUC spans the tested range (256-fold, ending at the top dose) of the same fit: 1 means no effect, lower means more sensitive. For some assays here: Any top dose called inferred comes from the curve model; the source does not state it. For some assays here: Drugs with an entry number were screened twice under separate entries, and the two screens often disagree.

Experiments:
Assay in all cases: Viability of human cancer cell lines after 72 h of drug (GDSC screen)
Tretinoin = compound: CC1=C(/C=C/C(C)=C/C=C/C(C)=C/C(=O)O)C(C)(C)CCC1 [Tretinoin]; conditions: top dose 10 µM; top dose inferred
Description: (§1)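 Human cancer cell lines in 384-well plates, medium with 10% serum, drug for 72 h over a 256-fold dose range (nine 2-fold or five 4-fold steps up to the top dose). Adherent lines were fixed and stained with the nucleic acid dye Syto60, suspension lines read with resazurin; signal relative to control wells, capped at 0 and 100%. One two-parameter sigmoid per drug and line, fitted in a mixed model over all curves with the slope shared within a line.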

UNC0638 = compound: COc1cc2c(NC3CCN(C(C)C)CC3)nc(C3CCCCC3)nc2cc1OCCCN1CCCC1 [UNC0638]
Description: as §1

SB-505124 = compound: Cc1cccc(-c2[nH]c(C(C)(C)C)nc2-c2ccc3c(c2)OCO3)n1 [SB-505124]; conditions: top dose 10 µM; top dose inferred
Description: as §1

GSK690693 = compound: CCn1c(-c2nonc2N)nc2c(C#CC(C)(C)O)ncc(OC[C@H]3CCCNC3)c21 [GSK690693]; conditions: top dose 10.24 µM; top dose inferred
Description: as §1

BX-795 = compound: O=C(NCCCNc1nc(Nc2cccc(NC(=O)N3CCCC3)c2)ncc1I)c1cccs1 [BX-795]; conditions: top dose 5 µM; top dose inferred
Description: as §1

WH-4-023 = compound: COc1ccc(N(C(=O)Oc2c(C)cccc2C)c2ccnc(Nc3ccc(N4CCN(C)CC4)cc3)n2)c(OC)c1 [WH-4-023]; conditions: top dose 5.12 µM; top dose inferred
Description: as §1

PI-103 = compound: Oc1cccc(-c2nc(N3CCOCC3)c3oc4ncccc4c3n2)c1 [PI-103]; conditions: top dose 10.24 µM
Description: as §1

[1] = top dose 20 µM, screen: GDSC drug entry 1236, top dose inferred
[2] = top dose 40 µM, screen: GDSC drug entry 245

| Cell Line | AUC (Tretinoin) | IC50 (Tretinoin) | AUC (UNC0638; [1]) | IC50 (UNC0638; [1]) | AUC (UNC0638; [2]) | IC50 (UNC0638; [2]) | AUC (SB-505124) | IC50 (SB-505124) | AUC (GSK690693) | IC50 (GSK690693) | AUC (BX-795) | IC50 (BX-795) | AUC (WH-4-023) | IC50 (WH-4-023) | AUC (PI-103) | IC50 (PI-103) |
| --- | --- | --- | --- | --- | --- | --- | --- | --- | --- | --- | --- | --- | --- | --- | --- | --- |
| KP-N-YN (neuroblastoma, adherent) | 0.987 | > 10 µM | 0.808 | 11.6 µM | 0.755 | 14.8 µM | 0.813 | 6.04 µM | 0.983 | > 10.2 µM | 0.986 | > 5 µM | 0.891 | > 5.12 µM | 0.886 | > 10.2 µM |
| KS-1 (glioma, adherent) | 0.818 | 7.51 µM | 0.851 | > 20 µM | 0.619 | 5.8 µM | 0.958 | > 10 µM | 0.878 | > 10.2 µM | 0.757 | 2.11 µM | 0.304 | – | 0.694 | 2.58 µM |
| KU812 (chronic myeloid leukaemia, suspension) | 0.891 | 9.9 µM | 0.8 | 8.67 µM | 0.514 | 2.71 µM | 0.975 | > 10 µM | 0.037 | < 0.04 µM | 0.77 | 1.74 µM | 0.857 | 3.61 µM | 0.09 | < 0.04 µM |
| KURAMOCHI (ovary, adherent) | 0.984 | > 10 µM | 0.889 | > 20 µM | 0.865 | > 40 µM | 0.973 | > 10 µM | 0.971 | > 10.2 µM | 0.957 | > 5 µM | 0.713 | 1.43 µM | 0.847 | 9.42 µM |
| KY821 (leukaemia, suspension) | 0.984 | > 10 µM | 0.838 | 11.2 µM | 0.745 | 11.2 µM | 0.987 | > 10 µM | 0.99 | > 10.2 µM | 0.877 | 3.94 µM | 0.978 | > 5.12 µM | 0.827 | 5.22 µM |
| L-363 (myeloma, suspension) | 0.876 | 7.67 µM | 0.724 | 4.87 µM | 0.666 | 6.72 µM | 0.964 | > 10 µM | 0.808 | 4.44 µM | 0.812 | 2.25 µM | 0.986 | > 5.12 µM | 0.28 | 0.169 µM |
| L-428 (Hodgkin lymphoma, suspension) | 0.978 | > 10 µM | 0.911 | > 20 µM | 0.992 | > 40 µM | 0.985 | > 10 µM | 0.993 | > 10.2 µM | 0.976 | > 5 µM | 0.986 | > 5.12 µM | 0.789 | 3.95 µM |
| L-540 (Hodgkin lymphoma, suspension) | 0.961 | > 10 µM | 0.641 | 2.93 µM | 0.978 | > 40 µM | 0.983 | > 10 µM | 0.982 | > 10.2 µM | 0.846 | 3.05 µM | 0.919 | > 5.12 µM | 0.72 | 2.48 µM |
| L-1236 (Hodgkin lymphoma, suspension) | 0.877 | 7.42 µM | 0.871 | 14 µM | 0.715 | 9.01 µM | 0.986 | > 10 µM | 0.971 | > 10.2 µM | 0.699 | 1.02 µM | 0.977 | > 5.12 µM | 0.814 | 4.51 µM |
| LAMA-84 (chronic myeloid leukaemia, suspension) | 0.793 | 4.64 µM | 0.975 | > 20 µM | 0.628 | 5.67 µM | 0.963 | > 10 µM | 0.91 | > 10.2 µM | 0.693 | 1.1 µM | 0.044 | < 0.02 µM | 0.596 | 1.18 µM |
| LAN-6 (neuroblastoma, adherent) | 0.983 | > 10 µM | 0.732 | 6.56 µM | 0.754 | 15.8 µM | 0.984 | > 10 µM | 0.916 | > 10.2 µM | 0.985 | > 5 µM | 0.959 | > 5.12 µM | 0.877 | > 10.2 µM |
| LB373-MEL-D (melanoma, adherent) | 0.99 | > 10 µM | 0.823 | 11.5 µM | 0.759 | 13.8 µM | 0.989 | > 10 µM | 0.99 | > 10.2 µM | 0.99 | > 5 µM | 0.935 | > 5.12 µM | 0.971 | > 10.2 µM |
| LB771-HNC (head and neck, adherent) | 0.954 | > 10 µM | 0.839 | 19 µM | 0.859 | > 40 µM | 0.961 | > 10 µM | 0.946 | > 10.2 µM | 0.976 | > 5 µM | 0.894 | > 5.12 µM | 0.905 | > 10.2 µM |
| LB831-BLC (bladder, adherent) | 0.981 | > 10 µM | 0.899 | > 20 µM | 0.891 | > 40 µM | 0.97 | > 10 µM | 0.985 | > 10.2 µM | 0.908 | > 5 µM | 0.344 | 0.117 µM | 0.762 | 3.72 µM |
| LB1047-RCC (kidney, adherent) | 0.849 | 8.99 µM | 0.828 | 14.6 µM | 0.887 | > 40 µM | 0.933 | > 10 µM | 0.973 | > 10.2 µM | 0.715 | 1.38 µM | 0.341 | 0.109 µM | 0.901 | > 10.2 µM |
